In US20230165967A1 (TAE LIFE SCIENCES, published 2023):
Where two headings read alike, the source gives them in different places. One block for each binder: values may come before it.

Assays:
[1] = target: T1, recombinant human FcRn (Sino Biological) (human, UniProt P55899 in part; P61769 in part); test: ELISA at pH 6.0: plate coated with recombinant human FcRn, antibody titrated, HRP goat anti-human Fc, OD650
[2] = target: T2, human C1q (sigma Cat #C1740) (human, UniProt P02745; P02746; P02747); test: ELISA: plate coated with antibody at 1 ug/ml, human C1q titrated 0.625-40 ug/ml, rabbit anti-human C1q then HRP goat anti-rabbit, OD650
[3] = target: T3, FcγRIIa (CD32) (Sino Biological, cat #10374-H08H) (UniProt P12318 34-218); test: Sandwich ELISA: anti-His capture of His-tagged FcγRIIA mixed with titrated antibody, HRP goat anti-human IgG Fc, OD650
T3 sequence (looked up): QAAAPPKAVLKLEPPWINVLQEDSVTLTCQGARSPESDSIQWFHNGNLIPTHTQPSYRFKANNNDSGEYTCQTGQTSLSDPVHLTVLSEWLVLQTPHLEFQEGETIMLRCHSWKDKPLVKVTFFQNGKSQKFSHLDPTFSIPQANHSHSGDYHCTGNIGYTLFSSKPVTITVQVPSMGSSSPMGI

[4] = target: T2, human C1q (sigma Cat #C1740); test: ELISA: plate coated with antibody at 1 ug/ml, human C1q titrated 0.625-40 ug/ml, rabbit anti-human C1q then HRP goat anti-rabbit, OD650; remark: listed apart in the source
[5] = target: T4, recombinant human soluble ECD of CD64/FCGRIA (human, UniProt P12314 16-292); test: ELISA: plate coated with recombinant human CD64/FCGRIA ECD, antibody titrated, HRP goat anti-human Fc, OD650
T4 construct: extracellular domain; also called FcγRI

[6] = target: T3, FcγRIIa (CD32) (Sino Biological, cat …); test: Sandwich ELISA: anti-His capture of His-tagged FcγRIIA mixed with titrated antibody, HRP goat anti-human IgG Fc, OD650; remark: listed apart in the source
[7] = target: T1, recombinant human FcRn (Sino Biological); test: ELISA at pH 6.0: plate coated with recombinant human FcRn, antibody titrated, HRP goat anti-human Fc, OD650; remark: listed apart in the source

T2 sequence (P02745 23-245 limits assumed, chain 1 of 3): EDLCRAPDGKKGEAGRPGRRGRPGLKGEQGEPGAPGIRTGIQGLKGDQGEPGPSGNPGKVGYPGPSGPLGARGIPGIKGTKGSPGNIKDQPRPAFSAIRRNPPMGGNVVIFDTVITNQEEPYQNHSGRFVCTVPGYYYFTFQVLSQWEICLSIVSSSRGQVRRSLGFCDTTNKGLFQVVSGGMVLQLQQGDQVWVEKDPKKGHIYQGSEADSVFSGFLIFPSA
T2 sequence (P02746 28-253 limits assumed, chain 2 of 3, further chain): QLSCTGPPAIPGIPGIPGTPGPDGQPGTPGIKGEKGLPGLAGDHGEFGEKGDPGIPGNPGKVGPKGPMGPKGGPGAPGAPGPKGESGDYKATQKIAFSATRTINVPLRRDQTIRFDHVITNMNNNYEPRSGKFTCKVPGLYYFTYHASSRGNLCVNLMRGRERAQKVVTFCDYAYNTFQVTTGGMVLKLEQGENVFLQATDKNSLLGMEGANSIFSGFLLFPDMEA
T2 sequence (P02747 29-245 limits assumed, chain 3 of 3, further chain): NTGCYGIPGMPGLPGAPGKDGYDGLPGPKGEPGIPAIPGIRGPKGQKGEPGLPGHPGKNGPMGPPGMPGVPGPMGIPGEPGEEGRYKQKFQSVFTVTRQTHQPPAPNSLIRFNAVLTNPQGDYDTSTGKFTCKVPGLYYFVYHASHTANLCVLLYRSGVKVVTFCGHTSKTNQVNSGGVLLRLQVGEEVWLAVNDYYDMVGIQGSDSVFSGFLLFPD
T4 sequence (P12314 16-292): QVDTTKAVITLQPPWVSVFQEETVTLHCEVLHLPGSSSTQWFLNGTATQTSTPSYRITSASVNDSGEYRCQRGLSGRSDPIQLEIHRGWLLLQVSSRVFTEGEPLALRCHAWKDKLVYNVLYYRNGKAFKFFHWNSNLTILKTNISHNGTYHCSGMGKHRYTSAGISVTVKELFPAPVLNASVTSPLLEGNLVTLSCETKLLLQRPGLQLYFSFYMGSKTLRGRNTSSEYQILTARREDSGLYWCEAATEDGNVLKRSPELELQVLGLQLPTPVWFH

binding result [1]: binds
binding result [2]: binds
binding result [3]: binds
B1: Anti-EGFR Ab No. 1 L328C (antibody, human IgG1, kappa)
heavy: QVQLQESGPGLVKPSETLSLTCTVSGGSVSSGDYYWTWIRQSPGKGLEWIGHIYYSGNTNYNPSLKSRLTISIDTSKTQFSLKLSSVTAADTAIYYCVRDRVTGAFDIWGQGTMVTVSSASTKGPSVFPLAPSSKSTSGGTAALGCLVKDYFPEPVTVSWNSGALTSGVHTFPAVLQSSGLYSLSSVVTVPSSSLGTQTYICNVNHKPSNTKVDKKV[human IgG1 Fc with L328C (EU numbers) not written out]
light: DIQMTQSPSSLSASVGDRVTITCQASQDISNYLNWYQQKPGKAPKLLIYDASNLETGVPSRFSGSGSGTDFTFTISSLQPEDIATYFCQHFDHLPLAFGGGTKVEIKRTVAAPSVFIFPPSDEQLKSGTASVVCLLNNFYPREAKVQWKVDNALQSGNSQESVTEQDSKDSTYSLSSTLTLSKADYEKHKVYACEVTHQGLSSPVTKSFNRGEC
notes: Fc variant; wild-type light chain; also called Anti-EGFR Mab No. 1 single mutant; single mutation L328C

binding result [4]: binds
EC50 (read off the curve) [5]: ~0.2 µg/mL
binding result [6]: binds
binding result [7]: binds
B2: Anti-CDH3 Ab L328C (antibody, human IgG1, kappa)
heavy: QVQLQQSGPGLVKPSQTLSLTCAISGDSVSSQSAAWNWIRQSPSRGLEWLGRIYYRSKWYNDYALSVKSRITINPDTSKNQFSLQLNSVTPEDTAVYYCARGEGYGREGFAIWGQGTLVTVSSASTKGPSVFPLAPSSKSTSGGTAALGCLVKDYFPEPVTVSWNSGALTSGVHTFPAVLQSSGLYSLSSVVTVPSSSLGTQTYICNVNHKPSNTKVDKRV[human IgG1 Fc with L328C (EU numbers) not written out]
light: DIQMTQSPSSLSASVGDRVTITCRASQTISNTLAWYQQKPGKAPKLLIYAASNLQSGVPSRFSGSGSGTDFTLTISSLQPEDFATYYCQQYLSWFTFGQGTKVEIKRTVAAPSVFIFPPSDEQLKSGTASVVCLLNNFYPREAKVQWKVDNALQSGNSQESVTEQDSKDSTYSLSSTLTLSKADYEKHKVYACEVTHQGLSSPVTKSFNRGEC
notes: Fc variant; wild-type light chain; also called Anti-CDH3 Mab single mutant; single mutation L328C
